Source: ChEMBL document CHEMBL1201862, “PubChem BioAssay data set” (2004)
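Compound exposure: 48 hours, 5 concentrations, 96-well plates. Abbreviation: GI50, concentration required for 50% inhibition of growth.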 Activity calls are given as the source filed them. No stated cut-off is given here; in the data, active = GI50 up to about 1.1 µM and inactive = higher.

System: NCI-H322M
Assay: NCI-60 cell line screen, 48 h

Row | Structure (SMILES) | GI50
1 | COC1O[C@H]2[C@H]3[C@@H]1[C@@H](OS(=O)(=O)c1ccc(C)cc1)C(=O)N3C[C@H]2O (stereo partly specified) | inactive: > 100 µM
2 | CC(C)C(=O)CP(=O)(O)O | inactive: > 100 µM
3 | Clc1ccc2ns[s+]c2c1 | inactive: > 39.4 µM
4 | COC(=O)C1C(OCc2ccccc2)C2CCC1(OC)C=C2C (stereo unspecified) | inactive: > 100 µM
5 | Cn1c(=O)n2n(c1=O)Cc1cccc3cccc(c13)C2 | inactive: > 100 µM
6 | CC(=O)N1N=C(c2ccc3ccccc3c2O)CC1c1ccc(N(C)C)cc1 (stereo unspecified) | inactive: > 100 µM
7 | COc1cc(C2S/C(=C/c3ccccc3)C(=O)N2c2ccccn2)cc(OC)c1OC (stereo unspecified) | inactive: 41.3 µM
8 | Cc1nc2ccccc2cc1C[N+]12CN3CN(CN(C3)C1)C2 | inactive: 22.8 µM
9 | Nc1cc2c(nc3c4ccccc4c(N)cc3[n+]2-c2cccc3ccccc23)c2ccccc12.Nc1cc2c(nc3c4ccccc4ccc3[n+]2-c2cccc3ccccc23)c2ccccc12 | inactive: 5.78 µM
10 | Nc1ncnc2c1ncn2[C@@H]1C[C@@H]1CO | inactive: > 100 µM
11 | C/C=N\N1C(=O)c2ccccc2C1=O | inactive: > 100 µM
12 | C(=C\c1ccccc1)/Cn1nc(-c2ccccc2)nc1-c1cnccn1 | inactive: > 100 µM
13 | COC(=O)CC1CC2(C(=O)OC)c3[nH]c4ccccc4c3CCN2C1=O (stereo unspecified) | inactive: > 100 µM
14 | CN(C)c1ccc(/N=N/c2ccc3[nH]cnc3c2)cc1 | inactive: 33.2 µM
15 | O=C(CCc1ccc(O)c(O)c1)NCCc1cc(O)cc(O)c1 | inactive: > 100 µM
16 | NP1(Oc2ccc(F)cc2)=NP(N)(Oc2ccc(F)cc2)=NP(Oc2ccc(F)cc2)(Oc2ccc(F)cc2)=N1 (stereo unspecified) | inactive: 3.66 µM
17 | CC(C)=CCCC1(C)C=Cc2c(c(C)cc3c2[nH]c2cc(O)ccc23)O1 (stereo unspecified) | inactive: > 25 µM
18 | O=c1ccn([C@@H]2C[C@@H]2CO)c(=O)[nH]1 | inactive: > 100 µM
19 | CCC1OC2C(CC=C(C)C)=C3OC(C)(O)C(C)(CC)C(OC(=O)c4ccccc4)C3=C3OC(=O)C=C1C32 (stereo unspecified) | inactive: 46.8 µM
20 | O=C1C=C/C(=N/c2cccc3c(/N=C4/C=CC(=O)O4)cccc23)O1 | inactive: > 100 µM
21 | CC12CC(c3ccccc3O1)C(C(=O)Nc1ccc(Cl)cc1Cl)C(=O)N2 (stereo unspecified) | inactive: 24.9 µM
22 | N/C(S)=N/N=C/c1cc(CN2CCOCC2)c(N)cn1 | inactive: 39.8 µM

Row | Structure (SMILES) | GI50
23 | CC1=C(C(=O)NNC(=O)Cc2ccccc2)CC(C(=O)NNC(=O)Cc2ccccc2)=C(C)N1 | inactive: > 100 µM
24 | CSc1ncnc2c1ncn2C1OC(CO)C(O)OC1O (stereo unspecified) | inactive: 2.47 µM
25 | O=[N+]([O-])c1c(F)c(F)c2c(c1F)N(CCCCCl)c1ccccc1S2 | inactive: 7.31 µM
26 | c1ccc(C2=NOC3COc4ccccc4OCC23)cc1 (stereo unspecified) | inactive: > 100 µM
27 | O=[N+]([O-])c1cc2ccc1OCc1cccc(n1)COc1ccc(cc1[N+](=O)[O-])/C=N\CCCCCCCC/N=C\2 | inactive: > 100 µM
28 | C=CCOc1ccc(C2c3c(n[nH]c3O)CC(C)(O)C2C(=O)OC)cc1OC (stereo unspecified) | inactive: > 100 µM
29 | CCCCCCCCCCNC1CC(OC2CC(O)(C(O)CO)Cc3c(O)c4c(c(O)c32)C(=O)c2c(OC)cccc2C4=O)OC(C)C1O (stereo unspecified) | inactive: 1.71 µM
30 | CSc1cc(Cl)c(C)cc1S(=O)(=O)NC(=O)NNc1ccc(Cl)cc1 | inactive: > 100 µM
31 | S=C(NCCc1ccccn1)N/N=C/c1ccccn1 | active: < 0.018 µM
32 | CS(=O)(=O)OCC1CCCCCCCCCCC12SCCCS2 (stereo unspecified) | inactive: > 100 µM
33 | Cn1c2ncccc2n2c(=O)cc(O)cc12 | inactive: 67.1 µM
34 | S=C1C=C(c2ccccc2)Sc2ccccc2N1 | inactive: > 100 µM
35 | CCCN1CN(C(C(=O)N[C@@H]2C(=O)N3C2SC(C)(C)C3C(=O)O)c2ccccc2)CSC1=S (stereo partly specified) | inactive: > 100 µM
36 | O=C(CN(c1ccc(S(=O)(=O)O)cc1)c1ccc(S(=O)(=O)O)cc1)Nn1cnc2ccc(S(=O)(=O)N(c3ccc(S(=O)(=O)O)cc3)c3ccc(S(=O)(=O)O)cc3)cc2c1=O | inactive: > 100 µM
37 | CC(C)(C)c1cc(C=C(C#N)C#N)cc(C(C)(C)C)c1O [TYRPHOSTIN A9] | active: 0.395 µM
38 | CN(C)c1ccc(/C=c2\sc3nnc(-c4cccnc4)n3c2=O)cc1 | inactive: > 100 µM
39 | CCN(CC)c1c(C(=O)/C=C/c2ccccc2)c(-c2ccccc2)nn(C)c1=O | inactive: 5.68 µM
40 | Cc1ccc2c(n1)C(=O)c1cc(C)c(C)cc1C2=O | inactive: 61.1 µM
41 | Brc1ccc(-c2cc3c(cc2C2SCCS2)OCO3)cc1 | inactive: 44.9 µM
42 | CC(=O)Nc1ccc(C2CC(c3ccc([N+](=O)[O-])cc3)=Nc3ccccc3S2)cc1 (stereo unspecified) | inactive: 34.2 µM
43 | CC1CCC(C(C)C2C(O)CC3C4CC=C5CC(O)CCC5(C)C4CCC32C)NC1 (stereo unspecified) | inactive: 29.2 µM
44 | COCN(C)c1nc(N(C)C)nc(N(C)C)n1 | inactive: > 100 µM

Row | Structure (SMILES) | GI50
45 | CN(O)C(=O)c1cccc(Cl)c1 | inactive: > 100 µM
46 | CN(C)CC/C(=N\Nc1c(Cl)cccc1Cl)c1ccccc1 | inactive: > 10 µM
47 | Cc1cc2c(c(C(=O)O)c1C)-c1cccc(F)c1C2=O | inactive: > 100 µM
48 | Cc1ccc(-c2c(C#N)c(N)[nH]c(=S)c2C#N)cc1 | inactive: 51.5 µM
49 | N#CC(C#N)=C/C=C/c1c(Cl)cccc1Cl | inactive: 2.48 µM
50 | COCN1C(=O)C2CC(/C=C/C(N)=O)=CN2C(=O)c2ccccc21 (stereo unspecified) | inactive: > 100 µM
51 | COc1cc(O)c2c(=O)c(OC)c(-c3ccc4c(c3)OCO4)oc2c1 | inactive: > 100 µM
52 | CC12CCC(C(=O)n3c1nc1ccccc13)C(C)(C)O2 (stereo unspecified) | inactive: > 100 µM
53 | CCCC(=O)NC(C(=O)OCC)(N1CCOCC1)C(F)(F)F (stereo unspecified) | inactive: > 100 µM
54 | CC(NC(=O)OCc1ccccc1)NC(=O)OC(C)(C)C (stereo unspecified) | inactive: > 100 µM
55 | CC(=O)C(CN(C)C)C(c1ccccc1)c1c(O)c2ccccc2oc1=O (stereo unspecified) | inactive: > 100 µM
56 | N#CCCN(c1ccc(/C=C2\N=C(Cc3ccccc3)OC2=O)cc1)S(=O)(=O)c1ccccc1 | inactive: > 100 µM
57 | COc1cccc(/C=C/c2ccnc3ccccc23)c1OC | inactive: > 10 µM
58 | CCOC(=O)C(NC(=O)CC)(Nc1ccccc1OC)C(F)(F)F (stereo unspecified) | inactive: > 100 µM
59 | O=C1Sc2cc3ccccc3cc2C(=O)Sc2ccc(Br)cc21 | inactive: 15.7 µM
60 | CC(=O)/N=C1/N(/C=C2\C(=O)Oc3ccccc3C2=O)C(=O)/C(=C/c2ccccc2Cl)N1C | inactive: > 100 µM
61 | CC(C)(C)CC(N)=O | inactive: > 100 µM
62 | O=C(Oc1cncc(Cl)c1)c1cc2ccccc2sc1=O | inactive: > 100 µM
63 | CC(=O)OCC1OC(Nc2ccc3nc(C)n(-c4ccccc4)c(=O)c3c2)C(OC(C)=O)C(OC(C)=O)C1OC(C)=O (stereo unspecified) | inactive: > 50 µM
64 | C/C(=N\Nc1nc2ccccc2o1)c1cc(C)ncn1 | active: 0.0865 µM
65 | CC(CC[C@@]1(O)OC2C[C@H]3[C@@H]4CC[C@H]5CC(OC6OC(CO)C(OC7OC(CO)C(O)C(OC8OCC(O)C(O)C8O)C7OC7OC(CO)C(O)C(O)C7O)C(O)C6O)[C@H](O)CC5(C)[C@H]4CCC3(C)C2[C@@H]1C)COC1OC(CO)C(O)C(O)C1O (stereo partly specified) | inactive: 5.28 µM
66 | O=C(Nc1ccccc1)Oc1ccccc1C1CCCCC1 | inactive: 35.2 µM
